Results as given in the supplement of paper PMC11369174, “Proteome-scale characterisation of motif-based interactome rewiring by disease mutations” (Molecular Systems Biology, 2024).
This is one part of the list. This is a noisy data set.

T1: CLTC_Clathrin-propeller__Q00610_1_364
T1 chain: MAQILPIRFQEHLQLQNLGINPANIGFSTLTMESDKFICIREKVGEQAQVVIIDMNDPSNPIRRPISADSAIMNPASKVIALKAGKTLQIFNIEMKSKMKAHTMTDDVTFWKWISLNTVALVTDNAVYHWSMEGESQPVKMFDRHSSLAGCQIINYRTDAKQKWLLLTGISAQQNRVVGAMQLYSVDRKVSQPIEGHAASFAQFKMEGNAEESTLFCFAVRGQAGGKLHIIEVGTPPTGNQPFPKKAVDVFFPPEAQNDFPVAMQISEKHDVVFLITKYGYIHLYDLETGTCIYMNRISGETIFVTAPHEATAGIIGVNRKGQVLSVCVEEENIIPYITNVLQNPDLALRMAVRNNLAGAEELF

T2: ZMYND11_coiled-coil-MYND__Q15326_480_602
T2 chain: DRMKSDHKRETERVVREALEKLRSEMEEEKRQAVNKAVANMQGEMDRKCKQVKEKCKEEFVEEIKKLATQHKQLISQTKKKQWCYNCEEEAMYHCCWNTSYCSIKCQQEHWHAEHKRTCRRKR

T3: EPHA3_Pkinase__P29320_606_947
T3 chain: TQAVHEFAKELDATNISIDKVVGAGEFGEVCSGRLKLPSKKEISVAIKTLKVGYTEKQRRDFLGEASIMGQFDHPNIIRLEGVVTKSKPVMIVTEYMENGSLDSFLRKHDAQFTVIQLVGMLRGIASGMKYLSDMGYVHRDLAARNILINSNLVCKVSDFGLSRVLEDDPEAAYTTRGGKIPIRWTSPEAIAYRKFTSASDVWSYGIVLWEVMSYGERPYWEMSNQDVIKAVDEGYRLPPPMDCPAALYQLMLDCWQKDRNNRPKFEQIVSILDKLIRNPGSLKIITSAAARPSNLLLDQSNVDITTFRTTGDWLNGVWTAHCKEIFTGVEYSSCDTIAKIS

T4: PEX14_Pex14__O75381_16_84
T4 chain: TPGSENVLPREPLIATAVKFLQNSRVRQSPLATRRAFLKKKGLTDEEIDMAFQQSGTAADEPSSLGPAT

T5: CSK21_Pkinase__P68400_1_335
T5 chain: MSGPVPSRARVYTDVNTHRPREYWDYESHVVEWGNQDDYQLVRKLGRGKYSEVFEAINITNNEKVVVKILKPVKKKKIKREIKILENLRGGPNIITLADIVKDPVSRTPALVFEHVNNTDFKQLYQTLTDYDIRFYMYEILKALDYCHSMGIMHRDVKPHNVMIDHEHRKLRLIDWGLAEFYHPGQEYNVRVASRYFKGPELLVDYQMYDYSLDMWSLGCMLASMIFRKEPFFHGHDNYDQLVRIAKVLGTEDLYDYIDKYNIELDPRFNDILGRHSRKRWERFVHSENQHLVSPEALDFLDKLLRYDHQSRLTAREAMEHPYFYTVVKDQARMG

T6: EPHB2_Pkinase__P29323_604_898
T6 chain: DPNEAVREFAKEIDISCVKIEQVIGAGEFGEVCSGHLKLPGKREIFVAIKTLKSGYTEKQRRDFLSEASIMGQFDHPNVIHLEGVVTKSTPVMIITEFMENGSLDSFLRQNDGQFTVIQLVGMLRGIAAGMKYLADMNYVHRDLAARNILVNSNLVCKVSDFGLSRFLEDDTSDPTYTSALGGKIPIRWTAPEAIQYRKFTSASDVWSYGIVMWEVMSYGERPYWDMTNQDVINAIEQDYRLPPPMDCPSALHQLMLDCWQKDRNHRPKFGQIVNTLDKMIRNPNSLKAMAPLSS


Target: T1, CLTC_Clathrin-propeller__Q00610_1_364
Test: mutation enrichment score (mutant vs wild-type peptide binding to bait); baits are purified protein domains named by gene / domain / UniProt id / residues; peptides come from disordered regions of human proteins; higher = mutation enhances binding relative to wild type
Conditions: number of wild-type / mutant comparisons summed (bounds the score): 12; paper call: no_effect; wild-type window: …
With DCTPSLKSLVATGNLLDLEEIAKAPLSTVSANTTNMDEVPR [T218I T218I] the mutation enrichment score was -3.

Same assay, conditions: number of wild-type / mutant comparisons summed (bounds the score): 18; paper call: diminished; wild-type window: …
With MDPALQMANTLPVSGNLIDLCGNQGLPPPGLTISNSCPANL [Y265C Y265C] the mutation enrichment score was -9.8.

Target: T2, ZMYND11_coiled-coil-MYND__Q15326_480_602
Test: as above
Conditions: number of wild-type / mutant comparisons summed (bounds the score): 6; paper call: no_effect; wild-type window: …
Work on MDPALQMANTLPVSGNLIDLCGNQGLPPPGLTISNSCPANL [Y265C Y265C] yielded a mutation enrichment score of -0.68.

The binders below were run against CREBBP_KIX__Q92793_587_673 in the same assay as above. Conditions: number of wild-type / mutant comparisons summed (bounds the score): 6; paper call: no_effect; wild-type window: ….
Binder TSLLNASSDKFVADLWKDVDHIVGLDQMAKMTESSLPSASK [R624H R624H] has a mutation enrichment score of 5. YEDALYTVLHRLGHPEPNHVMEASELLRYLQEAFHVEPEEH [T76M T76M] gave a mutation enrichment score of 5.9.

What follows are binders tested against CREBBP_NCBD__Q92793_2062_2109 in the same assay as above. Conditions: number of wild-type / mutant comparisons summed (bounds the score): 5; paper call: no_effect; wild-type window: ….
For YEDALYTVLHRLGHPEPNHVMEASELLRYLQEAFHVEPEEH [T76M T76M], the mutation enrichment score was 4.8. RGGPEREEKLTDWQKLACLLFRRQFPSKEALIRHQQLSGLH [C764F C764F] showed a mutation enrichment score of 2. Work on IIPPPPPICPDSLDDADALGGMLISWYMSGYHTGYYMGFRQ [S262G S262G] yielded a mutation enrichment score of -3. IIPPPPPICPDSLDDADALGIMLISWYMSGYHTGYYMGFRQ [S262I S262I] showed a mutation enrichment score of -3.

Target: T3, EPHA3_Pkinase__P29320_606_947
Test: as above
Conditions: number of wild-type / mutant comparisons summed (bounds the score): 12; paper call: no_effect; wild-type window: …
YEDALYTVLHRLGHPEPNHVMEASELLRYLQEAFHVEPEEH [T76M T76M] gave a mutation enrichment score of 2.

The binders below were run against MDM2_p53-binding-domain__Q00987_17_125 in the same assay as above. Conditions: number of wild-type / mutant comparisons summed (bounds the score): 8; paper call: no_effect; wild-type window: ….
With YEDALYTVLHRLGHPEPNHVMEASELLRYLQEAFHVEPEEH [T76M T76M] the mutation enrichment score was -1.

The binders below were run against CREBBP_KIX__Q92793_587_673 in the same assay as above. Conditions: number of wild-type / mutant comparisons summed (bounds the score): 12; paper call: diminished; wild-type window: ….
DNNNSDDCGNILPSDIMDFVQKNTPSMQALGESPESSSSEL [L2854Q L2854Q] was tested, and the mutation enrichment score was -6.7.

Target: T4, PEX14_Pex14__O75381_16_84
Test: as above
Conditions: number of wild-type / mutant comparisons summed (bounds the score): 6; paper call: no_effect; wild-type window: …
IIPPPPPICPDSLDDADALGGMLISWYMSGYHTGYYMGFRQ [S262G S262G] was tested, and the mutation enrichment score was -2.3.

Target: T5, CSK21_Pkinase__P68400_1_335
Test: as above
Conditions: number of wild-type / mutant comparisons summed (bounds the score): 6; paper call: no_effect; wild-type window: …
In the case of GGEEAKLKKRKPRVKKENKVLRLKEEHGIELSSPRHSDNPS [P1353L P1353L], the mutation enrichment score is reported as 2. For IAPRRGHDNTGVTDRVVNQLPTQLDGVEGLQGVYVLAATSR [L965P L965P], the mutation enrichment score was -3. In the case of QAELSQMQTQISETNVILSMVNNRSLDLDSIIAEVKAQYED [D340V D340V], the mutation enrichment score is reported as 3. KPPGTFLLRFSESSKEGGVTLTWVEKDISGKTQIQSVEPYT [F621L F621L] was tested, and the mutation enrichment score was -3. Work on KPPGTFLLRFSESSKEGGVTVTWVEKDISGKTQIQSVEPYT [F621V F621V] yielded a mutation enrichment score of -3. Work on PPGTFLLRFSESSKEGGVTFIWVEKDISGKTQIQSVEPYTK [T622I T622I] yielded a mutation enrichment score of -3. Binder PGTFLLRFSESSKEGGVTFTLVEKDISGKTQIQSVEPYTKQ [W623L W623L] has a mutation enrichment score of -3. SKQDSWNSLVLADSHGDIITV [A442V A442V] gave a mutation enrichment score of 4. Work on TLGSMLAVTFLLQALVLLGLWYLQTALEGLGGVIDAGGETQ [R287W R287W] yielded a mutation enrichment score of 2. PLQQQQVLSILHANPQLLAAVIKQRAAKYANSNPQPIPGQP [F2084V F2084V] showed a mutation enrichment score of -4.

The binders below were run against KPNA4_Arm__O00629_68_487 in the same assay as above. Conditions: number of wild-type / mutant comparisons summed (bounds the score): 9; paper call: no_effect; wild-type window: ….
Sequence of KPNA4_Arm__O00629_68_487 (chain, as listed by the source): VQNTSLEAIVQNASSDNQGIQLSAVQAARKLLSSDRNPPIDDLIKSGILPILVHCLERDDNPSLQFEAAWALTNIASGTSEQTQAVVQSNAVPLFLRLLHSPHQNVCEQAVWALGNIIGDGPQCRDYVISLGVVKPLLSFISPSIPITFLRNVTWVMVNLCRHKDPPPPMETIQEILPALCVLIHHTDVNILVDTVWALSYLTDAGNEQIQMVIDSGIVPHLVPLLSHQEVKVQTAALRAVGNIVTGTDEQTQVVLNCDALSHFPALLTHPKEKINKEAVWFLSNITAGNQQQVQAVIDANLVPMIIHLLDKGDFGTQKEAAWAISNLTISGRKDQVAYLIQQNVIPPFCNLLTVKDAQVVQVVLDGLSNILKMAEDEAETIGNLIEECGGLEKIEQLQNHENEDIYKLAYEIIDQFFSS
GGEEAKLKKRKPRVKKENKVLRLKEEHGIELSSPRHSDNPS [P1353L P1353L] gave a mutation enrichment score of 0.18.

Target: T3, EPHA3_Pkinase__P29320_606_947
Test: as above
Conditions: number of wild-type / mutant comparisons summed (bounds the score): 6; paper call: no_effect; wild-type window: …
For SKQDSWNSLVLADSHGDIITV [A442V A442V], the mutation enrichment score was 4. In the case of PLQQQQVLSILHANPQLLAAVIKQRAAKYANSNPQPIPGQP [F2084V F2084V], the mutation enrichment score is reported as -3.

Target: T6, EPHB2_Pkinase__P29323_604_898
Test: as above
Conditions: number of wild-type / mutant comparisons summed (bounds the score): 6; paper call: no_effect; wild-type window: …
With SKQDSWNSLVLADSHGDIITV [A442V A442V] the mutation enrichment score was 3. In the case of TLGSMLAVTFLLQALVLLGLWYLQTALEGLGGVIDAGGETQ [R287W R287W], the mutation enrichment score is reported as 3. With PLQQQQVLSILHANPQLLAAVIKQRAAKYANSNPQPIPGQP [F2084V F2084V] the mutation enrichment score was -3.
